Results published in the supplement of paper PMC9513381.
Recombinant human monoclonal antibodies (heavy:light variable regions). ELISA EC50 on the named antigen, from 10 µg/ml down; IC50 / IC90 against spike pseudovirus on 293T-ACE2 cells, 48 h; lower = stronger. Calls: IC50 above 1,000 ng/ml = non-neutralizing; EC50 above 1,000 ng/ml = non-binder. The source prints 1000 for neutralization that was not reached; it is given as >1000 ng/ml. Only binders of the Wuhan-Hu-1 domain have neutralization values.

Experiments:
Experiment in all cases: ELISA binding EC50; higher = weaker binding; ELISA of recombinant human antibody on coated antigen, from 10 µg/ml in fourfold dilutions; four-parameter fit.
[1] = target: SARS-CoV-2 Delta (B.1.617.2) spike RBD
[2] = target: SARS-CoV-2 Omicron BA.1 spike protein
[3] = target: SARS-CoV-2 Wuhan-Hu-1 spike receptor-binding domain

Measured: ELISA binding EC50

B1: B1056 (protein)
chain 1: QVQLVQSGAEVKKPGASVKVSCKASGYTFTSYDIDWVRQATGQGLEWMGWMNPNSGNTGYAQKFQGRVTMTRNTSISTAYMELSSLRSEDTAVYYCARAIWFGELPSAWGQGTLVTVSS
chain 2: not shown
> 1 µg/mL: all assays above

B2: B621 (protein)
chain 1: QVQLQESGPGLARPSETLSLTCGVTGYSISVGYYWGWFRQPPGKGLEWVGSMYHSGPAYYNSSLKSRVSISIQASKNRFSLSLSSVTAADSAVYFCAASGVGRAGALSYDAWGQGTLVLVSS
chain 2: EIVLTQSPGTLSLSPGERATLSCRASQSVSRTYLAWYQQKPGQAPRLLIYGVSSRATGIPDRFSGSGSGTDFTLTISRLEPEDFAVYYCQQYRTFGQGTKVEIK
> 1 µg/mL: all assays above

B3: B625 (protein)
chain 1: QLQLQESGPGLVKPSETLSLTCTVSGGSISSSSFYWGWIRQPPGKGLEWIGSIYYSGSTYYNPSLKSRVTISVDTSKNQFSLRLSSVSAADTAVYYCARHGPRPHYDFLTGDSDYYYYGLDVWGQGTTVTVSS
chain 2: DIQMTQSPSSLSASVGDRVTITCRASHNIRSYLNWYQQKPGKAPNLLIYVATSLQSGVPSRFSGSGSGTDFTLTISSLQPEDFATYYCQQSFTTPRTFGQGTRVEIK
> 1 µg/mL: all assays above

B4: B2101 (protein)
chain 1: QVQLQESGPGLVKPSETLSVTCAVSGYSISSSYYWGWIRQSPGRGLEWIGSIYHSGTTYHNPSVKSRLTISVDTPTNQFSLTLRSVTAADTAMYYCASNSGQVVIGAFDIWGQGTMVTVSS
chain 2: EIVLTQSPGTLSLSPGERATLSCRASQSVRNSYLAWYQQKPGQAPRLLIYGASRRATDIPDRFSGSGSGTDFTLTISRLEPEDFAVYYCQHYGDSPLTFGGGTKVEIK
> 1 µg/mL: all assays above

B5: B2105 (protein)
chain 1: QVQLQESGPGLVKPSETLSVTCAVSGYSISSSYYWGWIRQSPGRGLEWIGSIYHSGTTYYNPSVKSRLTISVDTSTNQFSLTLRSVTAADTAMYYCASNSGQVVIGAFDIWGQGTMVTVSS
chain 2: DIQMTQSPSTLSASVGDRVTITCRASQSINSWLAWYQQKPGKAPELLIYDASSLQSGVPSRFSGSGSETEFTLTISSLQPDDFATYYCQQYKTYSWTFGQGTKVEIK
> 1 µg/mL: all assays above

B6: B2107 (protein)
chain 1: QVQLQESGPGLVKPSETLSVTCAVSGYSISSSYYWGWIRQSPGRGLEWIGSIYHSGTTYYNPSVKSRLTISVDTSTNQFSLTLRSVTAADTAMYYCASNSGQVVIGAFDIWGQGTMVTVSS
chain 2: EIVLTQSPGTLSLSPGERATLSCRASLSLSSTYLAWYQQRPGQAPRLLIYGASSRATGIPDRFSGSGSGTDFTLTISRLEPEDFAVYYCQQYGRSPWTFGQGTKVEIK
> 1 µg/mL: all assays above

B7: B630 (protein)
chain 1: EVQLVESGGGLVQPGGSLRLSCTASGFTFSRYDMHWVRQPTGKGLEWVSAIGTSGDRYYPDSVKGRFTISREDAKNSLYLQMNNLRAGDTAVYYCARGDSTTSLLRHYYYMDVWGRGTTVTVSS
chain 2: QSVLTQPPSVSGAPGQRVTISCTGSSSNIGAGYDVHWYQQLPGTAPKLLIYGNSNRPSGVPDRFSGSKSGTSASLAITGLQAEDEADYYCQSYDSSLSDNWVFGGGTKLTVL
> 1 µg/mL: all assays above

B8: B1099 (protein)
chain 1: EVQLVESGGGLVQPGGSLRLSCTASGFTFDDYALQWVRQAPGKGLEWISGINWNSGSRGYANSVKGRFTISRDNAKNSLYLQMNSLRADDTAFYYCAKDRNRRGLTHDFEYFQHWGQGALVTVSS
chain 2: EIVMTQSPATLSVSPGERATLSCRASQTVSSNLAWYQQKPGQGPRLLIHGATTRATGIPARFSGSGSGTEFTLTISSLQSEDFAIYYCQQYKAWPRTFGQGTKVEIK
> 1 µg/mL: all assays above

B9: B1080 (protein)
chain 1: EVQLVESGRGLVQPGRSLRLSCAASGFTFDDYAMHWVRQAPGKGLEWVSGISWNSGSIGYVDSVKGRFTISRDNAKNTLYLQMNSLRAEDTALYYCAKGTIAVPLRECSLDYWGQGTLVTVSS
chain 2: DIQMTQSPSSLSTSVGDRVTITCRASQSIYGFLNWYQQRPGKAPKLLIYAASSLQSGVPSRFSGSGSGTDFTLTISSLQPEDFATYYCQQSYITPYTFGQGTKLEIK
> 1 µg/mL: all assays above
